According to patent publication US20230345946A1, “ANTIVIRAL SURFACES COMPRISING POLYOXOMETALATES AND ZINC MOLYBDATE” (FRIDA GROUP APS, priority 2020, published 2023):

Test system: influenza virus A/H1N1

## [O]=[Mo](=[O])([O-])[O-].[Zn+2] [Zinc molybdate, zinc molybdate]
  reduction of virus titre: 1.33 LG
